Data taken from the supplement of paper PMC11417369.
± gives the standard deviation of the averaged measurements. Some of the results follow.

The sequences below were run on PfAP2-G AP2 domain (GST-tagged) (assay: gcPBM binding intensity (ln(normalized median fluorescence intensity)); higher = stronger DNA binding).
Method in brief: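 Binding intensity is defined as the maximum Masliner-normalised natural-log median intensity across replicate spots for either probe orientation. It was measured on an Agilent 4 × 180k array of primer-extended double-stranded 36-bp intergenic genomic probes and negative controls, to which GST-tagged P. falciparum DNA-binding domains made in E. coli were applied for 1 h in 1× PBS with 1% milk, 0.2 mg/ml BSA, 0.5% salmon testes DNA and 0.03% Triton X-100. Detection was by Alexa488 anti-GST antibody and scanning at 488 nm.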

Sequence | gcPBM binding intensity (ln)
CATAAAAATGTATCAAGTACACATTTATTTATCCAT [XGTACX_site152] | 11.3 ± 0.77
TTTTTTTTTAAAGAAAATAAAAATATGTACTTGACA [CACACA_negctrl_site1113] | 11.2 ± 1.1
AAACAATTTTTATTTTGTACATAACAATATATTTAT [XGTACX_site1375] | 10.6 ± 0.28
TTTTTATATTTTATTAGTACTTATTATATATATAAT [XGTACX_site4900] | 11.1 ± 0.47
TTAAAATAAAGAGCAGTGCGCATATTTTGTTATTAT [GTGCAC_site9753] | 9.96 ± 0.014
ATAAAAAAATATGTAAACATATATATGTATTTATGT [CACACA_negctrl_site1517] | 9.76 ± 0.071
GAGTAAAACAAATATACACACCATAAAGTTATAAAA [CACACA_site5008] | 9.89 ± 0.18
AATATAAAAATGCACACACACAAAAAAAAAAAAAAA [CACACA_site6546] | 10.1 ± 0.45
ATTTTACATATTTGCACACATATATTTATATACATA [CACACA_site854] | 10.2 ± 0.16
TTATTTGTTTAATATGCATGCTAAAAGGGTTGATGT [TGCATGCA_site581] | 9.96 ± 0.099
AATTTAAATTCATCACGTACATACGTGAATATACAC [XGTACX_site5220] | 11.3 ± 0.96
TATATTAATTCGTTTTGTACACACATAATGAATAAT [XGTACX_site4618] | 11.1 ± 0.8
ATTTATCTATATATATGTACATATTATTTTTGTGGT [XGTACX_site7390] | 11.3 ± 0.73
GATATACAATTTAAGTGTACTATAATAAAATATATA [XGTACX_site3013] | 11.2 ± 0.84
ATAAAAAAATATAAATGTACATATATATATATATAT [XGTACX_site5620] | 11 ± 0.66
TCTAACATATCTTTAATACACACTTAAAAAAGTACT [CACACA_site652] | 10.9 ± 0.45
TTTAAAATATTGTATTGTACGCAATAAAAAATACCA [XGTACX_site182] | 11.5 ± 1.2
ATTAAATAAAATCATGCACACAATATATATTTTAAG [CACACA_site2495] | 9.99 ± 0.11
ATAAGCATCTTTTGTGTGCACATAACAAAAAAAAAA | 10.6 ± 0.53
TAAGGTAGTTCTGTATCACACACATATATATATATA [CACACA_site8693] | 10.3 ± 0.46
AAATACATATATACATGTACATAAATATATATATAT [XGTACX_site5367] | 11.2 ± 0.66
ATAGATATACATATCACACATATATATATATATATA [CACACA_site4985] | 10.2 ± 0.58
AATATATATGGACATGCATGGACATAATAATCTATT [TGCATGCA_site838] | 10.9 ± 0.53

Sequence | gcPBM binding intensity (ln)
GAAAATAATGTTACATGTACGAATATGTAACTATTG [XGTACX_site6833] | 10.8 ± 0.46
TGAGAAAGCGCATATTGTACTATATATTTTAACCAC [XGTACX_site4098] | 11 ± 0.58
AATCCATTCTATTTTTTACACACGTATGTAAATATT [CACACA_site8860] | 10.2 ± 0.11
GAAACGTTTTTGAGTAGTACACACACAATAAGGATG [XGTACX_site6809] | 11.7 ± 1.1
ATATAAATATAAACATGTACATATATATATATATAT [XGTACX_site2824] | 11.1 ± 0.69
ATATATTTATACATTTGTACATATACATATTTCTGA [XGTACX_site3982] | 10.9 ± 0.27
ATTTTTTTTGTAAAAGTGCATATATATATATATATA | 10.2 ± 0.32
AAAATTGTGCTTTCACGGACACAAGATCGAAATAGA [XGTACX_site4068] | 11 ± 0.73
TTTGTAATAACATATGCATGTTCAAAAAATAAAATA [TGCATGCA_site817] | 9.9 ± 0.16
ATTTTTTTATAAAATTTTTTATATATTAAATATTAT [CACACA_negctrl_site135] | 9.58 ± 0.085
ACGTTTTATTTTTATTGTACTCACATTGAAATGAAT [XGTACX_site6094] | 11.4 ± 0.98
AAATTTATATAAAACAGTACAATTAAAAAAAAAATA [XGTACX_site8015] | 10.7 ± 0.47
TTTTTAAATAACCTATATATTATTATGAAACATAAA [CACACA_negctrl_site916] | 9.705 ± 0.078
GTATAATATATTTATAGTACATAATTATTTATAAAT [XGTACX_site1826] | 11 ± 0.63
TATATATATATATTCACACATAAAAATAAAATAAAA [CACACA_site4774] | 9.98 ± 0.29
ATGTAACACATATTTGGTACAGATAGATAAAAGTAT [XGTACX_site8291] | 10.8 ± 0.33
TTTTCTTAATATTTATGTATATATATAATATGATAT [TGCATGCA_negctrl_site572] | 9.74 ± 0.042
TAATAAATCCTATATAGTACATATATGCAAGTATGT [XGTACX_site3955] | 11 ± 0.47
ATATATATATATGTGTGTACTTATTTATTTATTTGT [XGTACX_site549] | 11.5 ± 1
TATAACATATTTATATATGACATTATCTATTCATTT [CACACA_negctrl_site864] | 9.51 ± 0.17
ACATTAATATAAAGCACACATATATATAATATATAT [CACACA_site508] | 10 ± 0.13
ATTGATTTTTAATATACACACATAAGTACCACAAAA [CACACA_site339] | 11.4 ± 0.84
AAAAATATAAACTGCACACACAAAAAAAAAAGAGAA [CACACA_site1367] | 10.1 ± 0.2

Sequence | gcPBM binding intensity (ln)
CAATATTATTATATTTGTACACATGCGTATTTTTTA [XGTACX_site4154] | 11.3 ± 0.54
ATATTATGTGATTGTGCACACTGGAGATTTTTTTTA [CACACA_site1453] | 10.6 ± 0.3
CCCGTAAATACAAAAAGTACAAAAGTTCATCTTATA [XGTACX_site1154] | 11.2 ± 0.68
TTAATATTGTATCCAAGTACACAAATTATTATATTT [XGTACX_site8067] | 11.4 ± 1
CATGATATATAAATATGTACATATATATATATATAT [XGTACX_site1760] | 11.2 ± 0.69
TAATAATAATATAAAATACACACCTATTATTTTTAC [CACACA_site4003] | 9.72 ± 0.22
CCTAATTTTTTTAGTTGTACTTTTTTTTTTTTTTAT [XGTACX_site7948] | 11.6 ± 0.79
CAAATTATTTCGAGGTGTACTTTTTTATATTATATT [XGTACX_site8309] | 11.5 ± 0.89
GCCTATATGTTTAGTTGTACTCCTAATATTATTTGT [XGTACX_site6060] | 11.7 ± 1.1
TTTATAAATTGACACACACACATGTGAACATAAAAA [CACACA_site6978] | 10.5 ± 0.2
AATGTGTTCATATATGCACACGCATATATATTATTG [CACACA_site9274] | 10.16 ± 0.085
TATATAAATGGACACACACACACCTTATAATTATTA [CACACA_site6093] | 10.9 ± 0.53
TAACTTAAATAATACATACACACATGTACATACAGA [CACACA_site1594] | 11 ± 0.42
TATAATTTTTTTTGGGTGCTTGGGTAAATTTTATTA | 10.4 ± 0.2
AAAAAAAAAAAAAATAGTACGTAACTATAATTTCCT [XGTACX_site2457] | 11.2 ± 0.56
AAATTATAAGTAAAAAGTACTTAATATATAATAAAC [XGTACX_site6065] | 11.1 ± 0.63
CTTATACTTCTACATCGTACAAAAGATGGTATAATT [XGTACX_site2698] | 10.8 ± 0.43
AATTATATATTATCATGTACAAATATAGTAATACAA [XGTACX_site6845] | 10.7 ± 0.4
ATAAAAAAAAAAAAAAATGAAGCATCACCGTGTAAT [XGTACX_negctrl_site288] | 9.47 ± 0.14
ATACGTATATAATATACATGCATATATAGCACATAC [TGCATGCA_site376] | 10 ± 0.014
AAAAAAAAAAAAAAAAAAAAAGGACGGATGGATGGA [GTGCAC_negctrl_site527] | 11.1 ± 0.53
TCTCATTTCAACAACAGTACATATCTATCTGTGTAT [XGTACX_site6897] | 10.6 ± 0.32
GAAAGAGAAATATATACACACATATTTATATTTTTA [CACACA_site2066] | 9.835 ± 0.049

Sequence | gcPBM binding intensity (ln)
CACGAAAAAAAAAAATGTACATAAAAATATGATACA [XGTACX_site2536] | 11.2 ± 0.68
ATATATATATATATATGTACATATATCTACATATAT [XGTACX_site7588] | 11.3 ± 0.64
ACTTTTTAATATTTTAGTACACAGTAATTCTTACTA [XGTACX_site1425] | 11.4 ± 0.89
ATTTTTATTTTCTTTACACACCACATAACTTTTTTT [CACACA_site7826] | 10.3 ± 0.36
TATATTAAAAAAAAATGTACATATATATAATATATA [XGTACX_site1935] | 11.2 ± 0.7
TTTAATATGAATTTATGTACATATATATATATATAT [XGTACX_site6337] | 11.2 ± 0.78
CATTTTTTGCTTTCAACACACATACAATATAAATAA [CACACA_site7858] | 10.4 ± 0.3
TTATTTATTTAGTAGTGTACTTTTTATATTTATAAT [XGTACX_site5978] | 11.6 ± 0.99
AAAAAGTGATTAAAATGTACAAAATGCATAAAAGAA [XGTACX_site6625] | 10.6 ± 0.2
AAAGTAAAAAAAAAAACATGCATACGCTAATTTTTA [TGCATGCA_site301] | 9.65 ± 0.17
GATATGTTAAATATATGTACATATATAAACCCAAAC [XGTACX_site6601] | 11.2 ± 0.65
ATTTTAATACTTTTATATTAAATGTAGCACATCATA [XGTACX_negctrl_site273] | 10.2 ± 0.31
TATAATAATATTATAGTGCATATTATTTATATATAA [GTGCAC_site9820] | 9.895 ± 0.092
AAAAAAAAAAAATACACACACATATATATATATATA [CACACA_site2224] | 9.9 ± 0.52
TATGTAATAAATAGTACACACACACCGATATATATA [CACACA_site8389] | 11.3 ± 0.92
ACATATTATAACATATGTACATATATATATATATAA [XGTACX_site5567] | 11.2 ± 0.71
AAATATAAGTTTTATTGTACATTATATAGCATATTT [XGTACX_site6618] | 10.7 ± 0.43
TTTTGACATTAACTTAAAAAATAAATAATTATAAAA [XGTACX_negctrl_site552] | 9.65 ± 0.085
TTAATAAAAATATATCCACACACATATATATATATG [CACACA_site8091] | 10.2 ± 0.23
ATCATTTATTTTTTAAAAGTATATATATATATATAT [CACACA_negctrl_site220] | 10.1 ± 0.38
